Experiment [1] concerns the target T1, myc-mBicc1 IVT (in vitro translated) (mouse) (UniProt Q99MQ1).
T1 sequence: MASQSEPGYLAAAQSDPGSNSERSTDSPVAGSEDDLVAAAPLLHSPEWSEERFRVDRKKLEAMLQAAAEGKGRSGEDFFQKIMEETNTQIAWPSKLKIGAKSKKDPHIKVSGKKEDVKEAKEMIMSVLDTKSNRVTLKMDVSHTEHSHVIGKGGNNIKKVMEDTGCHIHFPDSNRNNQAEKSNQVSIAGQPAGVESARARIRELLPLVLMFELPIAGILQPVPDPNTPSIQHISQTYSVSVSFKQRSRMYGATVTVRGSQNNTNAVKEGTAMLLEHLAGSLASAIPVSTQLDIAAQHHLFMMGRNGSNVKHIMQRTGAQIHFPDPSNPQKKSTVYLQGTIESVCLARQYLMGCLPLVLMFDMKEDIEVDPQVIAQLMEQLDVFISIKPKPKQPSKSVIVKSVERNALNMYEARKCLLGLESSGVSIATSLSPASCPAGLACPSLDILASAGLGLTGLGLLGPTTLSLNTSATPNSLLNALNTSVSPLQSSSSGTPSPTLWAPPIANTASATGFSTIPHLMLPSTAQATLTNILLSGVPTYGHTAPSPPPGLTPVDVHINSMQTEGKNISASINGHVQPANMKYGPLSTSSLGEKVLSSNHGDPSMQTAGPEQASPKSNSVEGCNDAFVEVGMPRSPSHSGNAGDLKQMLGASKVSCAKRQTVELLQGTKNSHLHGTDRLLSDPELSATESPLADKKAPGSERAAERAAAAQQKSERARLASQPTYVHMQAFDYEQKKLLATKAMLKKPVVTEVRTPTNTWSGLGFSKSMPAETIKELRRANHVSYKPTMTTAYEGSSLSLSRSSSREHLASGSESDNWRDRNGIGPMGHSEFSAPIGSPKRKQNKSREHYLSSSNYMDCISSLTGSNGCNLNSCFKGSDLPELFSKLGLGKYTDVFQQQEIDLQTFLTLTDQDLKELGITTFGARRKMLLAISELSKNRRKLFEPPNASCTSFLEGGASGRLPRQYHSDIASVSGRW
As to the kind of experiment: co-IP; in vitro binding: in vitro translated myc-mBicc1 incubated with recombinant MBP fusion proteins, IP with an anti-c-myc antibody; only the binder purified.

Chains of the proteins cited; added tags and fusions are not shown. Lines headed by an entry give the natural chain unless they say otherwise; changes in a name come on top. Residues count along the entry.
UniProt P98161: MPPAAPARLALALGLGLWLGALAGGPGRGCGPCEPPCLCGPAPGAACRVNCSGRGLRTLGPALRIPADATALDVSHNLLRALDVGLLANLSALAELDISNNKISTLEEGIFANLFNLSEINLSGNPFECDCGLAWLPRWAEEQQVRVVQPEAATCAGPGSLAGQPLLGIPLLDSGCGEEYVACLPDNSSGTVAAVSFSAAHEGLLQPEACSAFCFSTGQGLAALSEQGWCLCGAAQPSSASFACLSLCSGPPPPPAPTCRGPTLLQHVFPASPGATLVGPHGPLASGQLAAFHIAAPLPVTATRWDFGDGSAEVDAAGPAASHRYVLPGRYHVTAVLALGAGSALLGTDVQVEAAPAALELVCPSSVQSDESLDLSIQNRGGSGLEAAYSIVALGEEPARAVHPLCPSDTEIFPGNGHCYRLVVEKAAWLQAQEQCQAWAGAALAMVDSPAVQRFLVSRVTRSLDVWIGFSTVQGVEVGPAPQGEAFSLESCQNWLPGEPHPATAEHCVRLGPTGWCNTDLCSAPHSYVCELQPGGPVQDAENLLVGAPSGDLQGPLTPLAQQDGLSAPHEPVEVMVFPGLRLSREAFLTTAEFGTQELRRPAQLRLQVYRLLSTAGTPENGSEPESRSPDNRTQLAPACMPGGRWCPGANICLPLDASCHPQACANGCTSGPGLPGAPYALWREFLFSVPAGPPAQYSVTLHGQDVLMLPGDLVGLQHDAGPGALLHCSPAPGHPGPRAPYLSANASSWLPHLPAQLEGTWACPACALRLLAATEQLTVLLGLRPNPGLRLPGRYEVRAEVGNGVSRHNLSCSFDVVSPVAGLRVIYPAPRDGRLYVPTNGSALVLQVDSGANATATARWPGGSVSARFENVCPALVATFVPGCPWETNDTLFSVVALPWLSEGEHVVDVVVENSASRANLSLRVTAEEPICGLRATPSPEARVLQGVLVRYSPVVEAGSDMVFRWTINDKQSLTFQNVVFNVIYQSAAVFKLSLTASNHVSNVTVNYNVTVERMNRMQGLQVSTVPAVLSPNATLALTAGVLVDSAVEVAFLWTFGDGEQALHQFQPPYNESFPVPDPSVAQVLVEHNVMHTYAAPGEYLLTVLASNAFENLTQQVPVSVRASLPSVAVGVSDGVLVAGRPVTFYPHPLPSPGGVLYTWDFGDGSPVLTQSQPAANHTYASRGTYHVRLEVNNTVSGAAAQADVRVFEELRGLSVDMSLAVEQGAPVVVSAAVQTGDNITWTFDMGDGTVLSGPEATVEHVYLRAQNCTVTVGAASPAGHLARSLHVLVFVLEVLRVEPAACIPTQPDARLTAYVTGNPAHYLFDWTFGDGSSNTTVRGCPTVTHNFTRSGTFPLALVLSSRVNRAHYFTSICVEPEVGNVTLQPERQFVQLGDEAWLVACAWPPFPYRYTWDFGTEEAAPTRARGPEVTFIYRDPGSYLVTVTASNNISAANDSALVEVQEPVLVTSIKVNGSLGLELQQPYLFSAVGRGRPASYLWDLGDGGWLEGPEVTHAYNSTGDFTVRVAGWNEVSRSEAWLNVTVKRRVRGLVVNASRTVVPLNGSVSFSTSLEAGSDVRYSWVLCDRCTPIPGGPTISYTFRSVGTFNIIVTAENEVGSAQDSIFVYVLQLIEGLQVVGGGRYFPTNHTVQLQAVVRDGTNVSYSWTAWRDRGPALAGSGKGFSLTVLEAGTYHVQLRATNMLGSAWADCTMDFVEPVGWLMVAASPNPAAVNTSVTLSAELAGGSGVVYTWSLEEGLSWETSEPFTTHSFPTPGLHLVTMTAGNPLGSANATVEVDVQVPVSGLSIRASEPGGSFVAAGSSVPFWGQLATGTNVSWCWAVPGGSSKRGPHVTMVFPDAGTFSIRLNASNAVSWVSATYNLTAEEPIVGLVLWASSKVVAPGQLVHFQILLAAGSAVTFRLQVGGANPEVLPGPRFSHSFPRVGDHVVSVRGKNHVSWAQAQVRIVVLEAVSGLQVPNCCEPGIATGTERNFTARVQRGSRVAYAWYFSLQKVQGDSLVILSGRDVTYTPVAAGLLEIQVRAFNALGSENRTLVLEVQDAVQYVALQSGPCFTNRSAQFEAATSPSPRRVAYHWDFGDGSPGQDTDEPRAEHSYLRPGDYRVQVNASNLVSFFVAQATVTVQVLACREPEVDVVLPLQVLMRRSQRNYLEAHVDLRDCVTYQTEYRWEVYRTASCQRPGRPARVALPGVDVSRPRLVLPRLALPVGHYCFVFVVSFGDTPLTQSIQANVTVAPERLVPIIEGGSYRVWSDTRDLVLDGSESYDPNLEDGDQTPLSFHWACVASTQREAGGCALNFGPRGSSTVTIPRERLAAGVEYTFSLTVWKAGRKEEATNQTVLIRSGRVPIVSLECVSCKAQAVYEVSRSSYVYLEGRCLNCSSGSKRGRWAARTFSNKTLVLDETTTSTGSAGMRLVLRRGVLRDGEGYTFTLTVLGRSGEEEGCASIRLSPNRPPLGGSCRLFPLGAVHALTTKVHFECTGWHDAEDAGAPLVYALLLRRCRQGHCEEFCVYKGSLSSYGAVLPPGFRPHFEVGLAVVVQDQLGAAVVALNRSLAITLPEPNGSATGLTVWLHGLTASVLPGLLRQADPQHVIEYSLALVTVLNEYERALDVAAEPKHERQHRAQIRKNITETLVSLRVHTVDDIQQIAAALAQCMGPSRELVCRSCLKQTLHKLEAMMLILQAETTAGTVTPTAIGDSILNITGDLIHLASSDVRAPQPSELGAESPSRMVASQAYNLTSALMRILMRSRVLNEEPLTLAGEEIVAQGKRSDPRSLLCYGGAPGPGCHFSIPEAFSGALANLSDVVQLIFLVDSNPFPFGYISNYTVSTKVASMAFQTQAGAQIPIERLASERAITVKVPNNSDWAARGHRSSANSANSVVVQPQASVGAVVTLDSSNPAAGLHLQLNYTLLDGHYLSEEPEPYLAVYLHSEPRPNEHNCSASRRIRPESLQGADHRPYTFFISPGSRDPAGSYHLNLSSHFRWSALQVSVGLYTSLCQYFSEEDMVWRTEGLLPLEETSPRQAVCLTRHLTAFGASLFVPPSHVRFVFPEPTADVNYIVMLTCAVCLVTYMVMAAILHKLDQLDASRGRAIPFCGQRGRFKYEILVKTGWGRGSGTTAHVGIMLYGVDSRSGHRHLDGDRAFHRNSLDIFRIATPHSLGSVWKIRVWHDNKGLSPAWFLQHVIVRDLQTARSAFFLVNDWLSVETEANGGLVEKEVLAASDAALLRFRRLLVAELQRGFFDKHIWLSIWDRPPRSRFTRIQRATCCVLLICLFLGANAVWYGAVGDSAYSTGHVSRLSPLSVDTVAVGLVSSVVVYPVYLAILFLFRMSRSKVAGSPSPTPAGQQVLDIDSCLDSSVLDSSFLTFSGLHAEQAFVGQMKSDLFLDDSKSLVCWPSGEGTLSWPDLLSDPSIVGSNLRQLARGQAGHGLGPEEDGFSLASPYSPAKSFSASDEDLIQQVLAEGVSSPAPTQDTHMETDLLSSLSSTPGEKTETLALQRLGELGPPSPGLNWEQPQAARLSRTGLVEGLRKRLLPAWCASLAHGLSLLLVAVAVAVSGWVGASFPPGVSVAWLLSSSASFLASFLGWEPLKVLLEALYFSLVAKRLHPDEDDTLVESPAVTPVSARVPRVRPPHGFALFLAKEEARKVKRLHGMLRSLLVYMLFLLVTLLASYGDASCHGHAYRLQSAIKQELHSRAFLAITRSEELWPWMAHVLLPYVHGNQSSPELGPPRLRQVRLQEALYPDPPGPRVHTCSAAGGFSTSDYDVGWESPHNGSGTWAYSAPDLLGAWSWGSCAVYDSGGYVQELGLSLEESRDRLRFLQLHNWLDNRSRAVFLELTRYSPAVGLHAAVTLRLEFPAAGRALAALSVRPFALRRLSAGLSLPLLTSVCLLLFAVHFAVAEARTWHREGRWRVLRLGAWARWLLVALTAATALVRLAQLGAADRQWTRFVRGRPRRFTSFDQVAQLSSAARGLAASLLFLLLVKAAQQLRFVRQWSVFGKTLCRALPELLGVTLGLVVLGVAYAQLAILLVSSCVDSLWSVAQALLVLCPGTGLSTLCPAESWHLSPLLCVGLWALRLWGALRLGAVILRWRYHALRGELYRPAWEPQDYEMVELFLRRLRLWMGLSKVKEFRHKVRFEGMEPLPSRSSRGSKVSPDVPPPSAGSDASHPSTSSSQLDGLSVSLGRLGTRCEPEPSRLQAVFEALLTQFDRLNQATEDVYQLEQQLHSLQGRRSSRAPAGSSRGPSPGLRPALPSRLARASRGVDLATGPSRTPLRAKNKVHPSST
endogenous PC1 (Polycystin-1) in UCL93 cells (human (endogenous in UCL93)): residues 24-4303 of P98161
UniProt Q9H694: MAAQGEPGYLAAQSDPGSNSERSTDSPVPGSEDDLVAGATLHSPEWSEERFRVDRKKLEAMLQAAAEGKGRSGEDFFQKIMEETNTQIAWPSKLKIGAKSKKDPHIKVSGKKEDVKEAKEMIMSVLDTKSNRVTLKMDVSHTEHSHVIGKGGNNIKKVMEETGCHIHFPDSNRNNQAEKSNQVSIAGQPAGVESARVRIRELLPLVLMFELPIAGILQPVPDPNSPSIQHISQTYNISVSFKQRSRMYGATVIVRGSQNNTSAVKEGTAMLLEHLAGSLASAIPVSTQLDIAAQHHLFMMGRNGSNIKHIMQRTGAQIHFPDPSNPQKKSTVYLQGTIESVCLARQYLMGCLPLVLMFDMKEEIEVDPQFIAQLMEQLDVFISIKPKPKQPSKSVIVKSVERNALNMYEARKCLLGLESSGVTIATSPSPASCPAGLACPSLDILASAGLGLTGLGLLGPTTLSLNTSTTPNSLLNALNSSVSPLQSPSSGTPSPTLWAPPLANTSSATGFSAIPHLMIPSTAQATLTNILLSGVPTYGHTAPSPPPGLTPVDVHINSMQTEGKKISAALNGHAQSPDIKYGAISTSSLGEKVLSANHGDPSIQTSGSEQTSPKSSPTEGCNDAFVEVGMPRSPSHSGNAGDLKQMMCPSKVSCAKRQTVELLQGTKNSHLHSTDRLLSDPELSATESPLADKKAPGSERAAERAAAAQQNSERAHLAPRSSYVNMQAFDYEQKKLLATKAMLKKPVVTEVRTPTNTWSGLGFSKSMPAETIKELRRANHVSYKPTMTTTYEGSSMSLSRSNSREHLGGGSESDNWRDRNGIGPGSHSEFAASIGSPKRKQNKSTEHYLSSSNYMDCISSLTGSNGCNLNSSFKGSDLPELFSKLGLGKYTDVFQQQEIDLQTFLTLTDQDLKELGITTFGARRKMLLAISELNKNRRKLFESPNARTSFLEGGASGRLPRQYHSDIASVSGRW

For experiment [2], the target named is endogenous PC1 (Polycystin-1) in UCL93 cells (human (endogenous in UCL93)) (UniProt P98161). Nature of the experiment: co-IP; endogenous proteins in lysates of UCL93 human kidney epithelial cells; IP with rabbit anti-PC1 (2b7), anti-BICC1 or anti-PC2.
The target of experiment [3] is T2, endogenous PC2 (Polycystin-2) in UCL93 cells (human (endogenous in UCL93)) (UniProt Q13563).
T2 sequence: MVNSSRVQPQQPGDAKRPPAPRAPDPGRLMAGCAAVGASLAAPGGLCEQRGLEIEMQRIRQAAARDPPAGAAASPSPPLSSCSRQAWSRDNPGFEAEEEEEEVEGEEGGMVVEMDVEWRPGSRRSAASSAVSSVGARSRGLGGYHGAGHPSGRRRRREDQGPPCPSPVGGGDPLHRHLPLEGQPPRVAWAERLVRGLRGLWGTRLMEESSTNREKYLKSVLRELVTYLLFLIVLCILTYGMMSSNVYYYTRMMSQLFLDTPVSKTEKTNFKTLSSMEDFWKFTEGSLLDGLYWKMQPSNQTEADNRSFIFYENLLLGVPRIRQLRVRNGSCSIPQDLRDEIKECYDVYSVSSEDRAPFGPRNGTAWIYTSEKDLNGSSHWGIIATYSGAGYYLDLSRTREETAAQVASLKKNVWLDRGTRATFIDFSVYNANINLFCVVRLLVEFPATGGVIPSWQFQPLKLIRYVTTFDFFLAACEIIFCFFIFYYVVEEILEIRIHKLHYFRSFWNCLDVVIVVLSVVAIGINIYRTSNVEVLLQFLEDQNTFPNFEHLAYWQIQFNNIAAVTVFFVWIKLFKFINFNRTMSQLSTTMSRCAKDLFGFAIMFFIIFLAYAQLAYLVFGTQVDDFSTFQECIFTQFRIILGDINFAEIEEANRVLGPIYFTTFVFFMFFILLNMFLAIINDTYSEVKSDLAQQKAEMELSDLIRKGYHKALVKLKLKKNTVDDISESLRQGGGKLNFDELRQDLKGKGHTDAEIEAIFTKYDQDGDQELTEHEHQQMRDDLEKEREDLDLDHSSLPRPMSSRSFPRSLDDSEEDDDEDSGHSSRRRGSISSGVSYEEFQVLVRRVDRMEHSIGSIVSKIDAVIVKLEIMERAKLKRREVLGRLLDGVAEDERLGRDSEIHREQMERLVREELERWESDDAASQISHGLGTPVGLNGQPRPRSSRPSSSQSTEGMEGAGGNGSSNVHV
The description is as above.

For experiment [4], the target named is T3, PC2-HA (full-length HA-tagged Polycystin-2) (UniProt Q13563).
T3 sequence: T2 sequence
As to the kind of experiment: co-IP; myc-mBicc1 constructs co-expressed with HA-tagged PC1 or PC2 in HEK-293 cells; the HA-tagged protein as bait.

These are yes or no findings as the source states them, for the method shown. In cells and extracts the contact can be indirect. Some results given as binding are weak or reduced against the parent protein; the word gives no strength. For part of these data: Where a sequence is shown, tags or fusion partners need not be part of it.

As for “MBP-CT1 (from UniProt P98161 4107-4303) (domain or fragment)”, the binding entry in experiment [1] is “binds”. The same measure, in the same setting: next, “MBP-PLAT (from UniProt P98161 3118-3223) (domain or fragment)”: “binds”. For “endogenous BICC1 in UCL93 cells (from UniProt Q9H694 1-974)”, the binding entry in experiment [2] and in experiment [3] was “binds” each time. For “myc-mBicc1-ΔKH (aa352-977) (from UniProt Q99MQ1 352-977) (domain or fragment)”, the binding entry in experiment [4] is on record as “no binding”. Take “myc-mBicc1-ΔSAM (aa1-815) (from UniProt Q99MQ1 1-815) (domain or fragment)”: the binding result in experiment [4] is listed as “binds”.

The values above are taken from paper PMC12900513.
